Drawing on the supplement of paper PMC9542798, this text covers minimum inhibitory concentration for 15 test systems.

Some results are limits rather than exact numbers.

Assay in all cases: minimum inhibitory concentration
Compound in experiment [1]: CNC(C)C1CCC(N)C(OC2C(N)CC(N)C(OC3OCC(C)(O)C(NC)C3O)C2O)O1 [Gentamicin]
As to the method: (§1)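 Broth microdilution MIC per ISO 10932 on precoated VetMIC Lact-1 plates (tylosin, vancomycin and ampicillin plates prepared manually) against lactic acid bacteria and bifidobacteria isolates. Plates were read visually after 48 h anaerobic incubation (bifidobacteria 72 h; enterococci and staphylococci 24 h aerobic) at species-specific temperatures of 30 or 37 °C. Values prefixed with < or > are outside the tested dilution range.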

Compound in experiment [2]: CC[C@H]1OC(=O)[C@H](C)[C@@H](O[C@H]2C[C@@](C)(OC)[C@@H](O)[C@H](C)O2)[C@H](C)[C@@H](O[C@@H]2O[C@H](C)C[C@H](N(C)C)[C@H]2O)[C@](C)(O)C[C@@H](C)C(=O)[C@H](C)[C@@H](O)[C@]1(C)O [Erythromycin]
As to the method: as §1

Compound in experiment [3]: NC[C@H]1O[C@H](O[C@H]2[C@H](O)[C@@H](O[C@H]3O[C@H](CO)[C@@H](O)[C@H](N)[C@H]3O)[C@H](N)C[C@@H]2N)[C@H](O)[C@@H](O)[C@@H]1O [Kanamycin]
As to the method: as §1

Compound in experiment [4]: CN(C)[C@@H]1C(O)=C(C(N)=O)C(=O)[C@@]2(O)C(O)=C3C(=O)c4c(O)cccc4[C@@](C)(O)[C@H]3C[C@@H]12 [Tetracycline]
As to the method: as §1

Compound in experiment [5]: CN[C@@H]1[C@H](O[C@H]2[C@H](O[C@H]3[C@H](O)[C@@H](O)[C@H](N=C(N)N)[C@@H](O)[C@@H]3N=C(N)N)O[C@@H](C)[C@]2(O)C=O)O[C@@H](CO)[C@H](O)[C@H]1O [Streptomycin]
As to the method:
as §1

Compound in experiment [6]: CCC[C@@H]1C[C@@H](C(=O)N[C@@H]([C@H]2O[C@H](SC)[C@H](O)[C@@H](O)[C@H]2O)[C@H](C)Cl)N(C)C1 [Clindamycin]
As to the method: as §1

Compound in experiment [7]: O=C(N[C@H](CO)[C@H](O)c1ccc([N+](=O)[O-])cc1)C(Cl)Cl [Chloramphenicol]
As to the method: as §1

Compound in experiment [8]: CN[C@H](CC(C)C)C(=O)N[C@H]1C(=O)N[C@@H](CC(N)=O)C(=O)N[C@H]2C(=O)N[C@H]3C(=O)N[C@H](C(=O)N[C@H](C(=O)O)c4cc(O)cc(O)c4-c4cc3ccc4O)[C@H](O)c3ccc(c(Cl)c3)Oc3cc2cc(c3O[C@@H]2O[C@H](CO)[C@@H](O)[C@H](O)[C@H]2O[C@H]2C[C@](C)(N)[C@H](O)[C@H](C)O2)Oc2ccc(cc2Cl)[C@H]1O [Vancomycin]
As to the method: as §1

Compound in experiment [9]: NC[C@@H]1O[C@H](O[C@H]2[C@@H](O)[C@H](O[C@@H]3[C@@H](O)[C@H](N)C[C@H](N)[C@H]3O[C@H]3O[C@H](CN)[C@@H](O)[C@H](O)[C@H]3N)O[C@@H]2CO)[C@H](N)[C@@H](O)[C@@H]1O [Neomycin]
As to the method:
as §1

Compound in experiment [10]: CC1(C)S[C@@H]2[C@H](NC(=O)[C@H](N)c3ccccc3)C(=O)N2[C@H]1C(=O)O [Ampicillin]
As to the method: as §1
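Further: isolates derived from commercial starter, protective, probiotic or feed-additive cultures, from fermented products, from human gut mucosa or feces, and from human milk or colostrum.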

For “Bifidobacterium animalis IM774 (strain group: human intestinal mucosa or faeces)”, the minimum inhibitory concentration in [1] is 256 µg/mL; in experiment [2], 0.25 µg/mL; in experiment [3] it was 512 µg/mL; in [4], 16 µg/mL; in experiment [5], 128 µg/mL; in [6], 0.12 µg/mL. Also, the minimum inhibitory concentration in [7] worked out at 2 µg/mL; in [8], 0.5 µg/mL; in [9], 256 µg/mL; in [10], 0.125 µg/mL.

Regarding “Bifidobacterium animalis IM786 (strain group: human intestinal mucosa or faeces)”, the minimum inhibitory concentration in experiment [1] was determined as 128 µg/mL; in [2] it was 0.25 µg/mL; in [3], 512 µg/mL; in experiment [4], 16 µg/mL; in [5], 128 µg/mL; in experiment [6], 0.25 µg/mL. Besides, the minimum inhibitory concentration in experiment [7] was 2 µg/mL; in [8], 0.5 µg/mL; in experiment [9] it was 256 µg/mL; in experiment [10], 0.125 µg/mL.

For “Bifidobacterium animalis IM800 (strain group: human intestinal mucosa or faeces)”, the minimum inhibitory concentration in experiment [1] came out at 128 µg/mL; in [2], 0.25 µg/mL; in experiment [3], 512 µg/mL; in [4], 16 µg/mL; in experiment [5], 128 µg/mL; in experiment [6] it was 0.12 µg/mL. Also, the minimum inhibitory concentration in experiment [7] is 2 µg/mL; in experiment [8] it was 1 µg/mL; in experiment [9], over 256 µg/mL; in [10], 0.125 µg/mL.

As to “Bifidobacterium animalis IM1342 (strain group: probiotic strains)”, the minimum inhibitory concentration in experiment [1] is 8 µg/mL; in experiment [2] it was 0.25 µg/mL; in [3] it was 64 µg/mL; in [4] it was 2 µg/mL; in [5] it was 32 µg/mL; in experiment [6], under 0.03 µg/mL. In addition, the minimum inhibitory concentration in experiment [7] was under 0.12 µg/mL; in experiment [8], 0.5 µg/mL; in experiment [9], 8 µg/mL; in experiment [10], 0.25 µg/mL.

Consider “Bifidobacterium animalis subsp. lactis IM558 (strain group: probiotic strains)”, for which the minimum inhibitory concentration in experiment [1] is 256 µg/mL; in [2], 0.25 µg/mL; in experiment [3], 512 µg/mL; in experiment [4], 8 µg/mL; in experiment [5], 128 µg/mL; in experiment [6] it was under 0.03 µg/mL. The minimum inhibitory concentration in experiment [7] is 2 µg/mL; in experiment [8], 0.5 µg/mL; in [9] it was over 256 µg/mL; in experiment [10], 0.125 µg/mL.

For the test system “Bifidobacterium animalis subsp. lactis IM559 (strain group: probiotic strains)”, the minimum inhibitory concentration was 256 µg/mL in [1]; 0.25 µg/mL in experiment [2]; 256 µg/mL in experiment [3]; 8 µg/mL in [4]; 64 µg/mL in experiment [5]; under 0.03 µg/mL in experiment [6]. Also, the minimum inhibitory concentration amounted to 2 µg/mL in experiment [7], 0.5 µg/mL in [8], 64 µg/mL in experiment [9] and 0.25 µg/mL in [10].

For the test system “Bifidobacterium animalis subsp. lactis IM560 (strain group: probiotic strains)”, the minimum inhibitory concentration in experiment [1] was 64 µg/mL; in [2], 0.25 µg/mL; in [3], 256 µg/mL; in experiment [4], 16 µg/mL; in experiment [5], 64 µg/mL; in [6], 0.12 µg/mL. Further, the minimum inhibitory concentration came to 2 µg/mL in experiment [7], 0.5 µg/mL in [8], 64 µg/mL in [9] and 0.125 µg/mL in experiment [10].

Consider “Bifidobacterium animalis subsp. lactis IM1114 (strain group: probiotic strains)”, for which the minimum inhibitory concentration in experiment [1] was 128 µg/mL; in experiment [2] it was 0.06 µg/mL; in experiment [3], 512 µg/mL; in experiment [4], 16 µg/mL; in experiment [5] it was 32 µg/mL; in experiment [6], under 0.03 µg/mL. For the same test system, the minimum inhibitory concentration was determined as 2 µg/mL in [7], 1 µg/mL in experiment [8], 16 µg/mL in experiment [9] and 0.25 µg/mL in experiment [10].

Regarding “Bifidobacterium animalis subsp. lactis IM1392 (strain group: probiotic strains)”, the minimum inhibitory concentration in experiment [1] was 64 µg/mL; in [2], 0.06 µg/mL; in experiment [3], 512 µg/mL; in experiment [4] it was 8 µg/mL; in [5], 64 µg/mL; in [6], 0.06 µg/mL. Moreover, the minimum inhibitory concentration came to 1 µg/mL in experiment [7], 0.5 µg/mL in experiment [8], 128 µg/mL in experiment [9] and 0.5 µg/mL in experiment [10].

“Bifidobacterium animalis subsp. lactis IM1398 (strain group: probiotic strains)”: the minimum inhibitory concentration in [1] is 64 µg/mL; in [2], 0.06 µg/mL; in experiment [3], 256 µg/mL; in experiment [4], 8 µg/mL; in experiment [5] it was 64 µg/mL; in experiment [6] it was under 0.03 µg/mL. In addition, the minimum inhibitory concentration in experiment [7] was found to be 1 µg/mL; in experiment [8] it was 0.5 µg/mL; in experiment [9], 32 µg/mL; in [10], 0.25 µg/mL.

In the case of “Bifidobacterium bifidum IM784 (strain group: human intestinal mucosa or faeces)”, the minimum inhibitory concentration in [1] came to 128 µg/mL; in [2], 0.25 µg/mL; in experiment [3], 512 µg/mL; in [4] it was 16 µg/mL; in experiment [5], 128 µg/mL; in experiment [6] it was 0.12 µg/mL. Moreover, the minimum inhibitory concentration turned out to be 2 µg/mL in [7], 0.5 µg/mL in experiment [8], 128 µg/mL in experiment [9] and 0.125 µg/mL in experiment [10].

On to “Bifidobacterium bifidum IM960 (strain group: human intestinal mucosa or faeces)”, for which the minimum inhibitory concentration in [1] worked out at 128 µg/mL; in experiment [2], 0.12 µg/mL; in [3], 512 µg/mL; in [4] it was 1 µg/mL; in [5] it was 128 µg/mL; in [6], 0.12 µg/mL. The minimum inhibitory concentration in experiment [7] was 1 µg/mL; in experiment [8], 0.5 µg/mL; in [9], 256 µg/mL; in [10], 0.063 µg/mL.

Turning to “Bifidobacterium bifidum IM1396 (strain group: probiotic strains)”, the minimum inhibitory concentration in experiment [1] worked out at 64 µg/mL; in [2], 0.12 µg/mL; in experiment [3], 512 µg/mL; in experiment [4], 1 µg/mL; in [5] it was 32 µg/mL; in experiment [6], 0.12 µg/mL. In addition, the minimum inhibitory concentration in experiment [7] stood at 2 µg/mL; in [8], 1 µg/mL; in [9], 256 µg/mL; in [10], 0.125 µg/mL.

Turning to “Bifidobacterium breve IM891 (strain group: human milk or colostrum)”, the minimum inhibitory concentration amounted to 32 µg/mL in experiment [1]; 0.06 µg/mL in experiment [2]; 256 µg/mL in experiment [3]; 1 µg/mL in experiment [4]; 32 µg/mL in experiment [5]; 0.06 µg/mL in [6]. Further, the minimum inhibitory concentration was determined as 2 µg/mL in experiment [7], 2 µg/mL in [8], 256 µg/mL in [9] and 2 µg/mL in experiment [10].

On to “Bifidobacterium longum IM682 (strain group: human intestinal mucosa or faeces)”, for which the minimum inhibitory concentration in experiment [1] turned out to be 16 µg/mL; in experiment [2], 0.12 µg/mL; in experiment [3], 128 µg/mL; in [4] it was 1 µg/mL; in experiment [5], 128 µg/mL; in experiment [6], 0.06 µg/mL. Also, the minimum inhibitory concentration is 2 µg/mL in experiment [7], under 0.25 µg/mL in experiment [8], 32 µg/mL in experiment [9] and under 0.032 µg/mL in [10].
